{
  "source": "the supplement of paper PMC11125491",
  "parents": {"B1": {"name": "UniProt A0EPZ9; numbered along this chain (parent)", "chain": "MDWQKSLTLIVALTLSRGIGLKNDLPWKLKSDMMFFSRVTSGLLVTRSTGQMNVVLMGRKTWESLPAHSRPLKNRINVVISRQEVLDLGGGAYHARSLDDALALLSQIYDSTSKIQLNRVFVIGGGELCKAAMEHSRLNRIIATVIHNEVDCDVFFPIDFRSSQSCLPWRKQDHSVLEAWVGSKVPQGKINENGFIYEFEMWIRDI"}},
  "variants_of": "B1",
  "assay": "selection coefficient against synonymous wild-type codons (log2 per generation); higher = faster growth than wild type",
  "settings": "with Saccharomyces cerevisiae carrying the variant on a plasmid",
  "description": "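Pooled growth of yeast carrying single-residue variants of P. jirovecii dihydrofolate reductase (own DFR1 gene intact), two passages at 30 °C, three cultures, sequenced before and after. Codons with under 15 starting reads are left out; codons of one change are averaged.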",
  "note": "± gives the standard deviation of the averaged measurements. Growth of baker's yeast expressing single-residue variants of Pneumocystis jirovecii dihydrofolate reductase in 8.8 or 44 µM methotrexate (about 75% and 90% inhibition of the wild type). Selection coefficient per generation; 0 = like wild type, above 0 = less sensitive, below 0 = more sensitive or loss of function. No active / inactive call per row; the paper calls resistant above 0.220 (8.8 µM) or 0.243 (44 µM) together with a significance test. At 44 µM about 15% of codons end with one read or none, so the lowest values are floors (replicate rank correlation 0.74; 0.94 at 8.8 µM).",
  "data": [
    {"variant": "MAWQKSLTLIVALTLSRGIGLKNDLPWKLKSDMMFFSRVTSGLLVTRSTGQMNVVLMGRKTWESLPAHSRPLKNRINVVISRQEVLDLGGGAYHARSLDDALALLSQIYDSTSKIQLNRVFVIGGGELCKAAMEHSRLNRIIATVIHNEVDCDVFFPIDFRSSQSCLPWRKQDHSVLEAWVGSKVPQGKINENGFIYEFEMWIRDI", "note": "[D2A]", "values": [
      {"measurement": "selection coefficient against synonymous wild-type codons (log2)", "setting": "methotrexate 8.8 µM", "value": "0.0175 ± 0.064"},
      {"measurement": "selection coefficient against synonymous wild-type codons (log2)", "setting": "methotrexate 44 µM", "value": "0.0794 ± 0.12"}
    ]},
    {"variant": "MCWQKSLTLIVALTLSRGIGLKNDLPWKLKSDMMFFSRVTSGLLVTRSTGQMNVVLMGRKTWESLPAHSRPLKNRINVVISRQEVLDLGGGAYHARSLDDALALLSQIYDSTSKIQLNRVFVIGGGELCKAAMEHSRLNRIIATVIHNEVDCDVFFPIDFRSSQSCLPWRKQDHSVLEAWVGSKVPQGKINENGFIYEFEMWIRDI", "note": "[D2C]", "values": [
      {"measurement": "selection coefficient against synonymous wild-type codons (log2)", "setting": "methotrexate 8.8 µM", "value": "-0.11 ± 0.07"},
      {"measurement": "selection coefficient against synonymous wild-type codons (log2)", "setting": "methotrexate 44 µM", "value": "0.0939 ± 0.15"}
    ]},
    {"variant": "MEWQKSLTLIVALTLSRGIGLKNDLPWKLKSDMMFFSRVTSGLLVTRSTGQMNVVLMGRKTWESLPAHSRPLKNRINVVISRQEVLDLGGGAYHARSLDDALALLSQIYDSTSKIQLNRVFVIGGGELCKAAMEHSRLNRIIATVIHNEVDCDVFFPIDFRSSQSCLPWRKQDHSVLEAWVGSKVPQGKINENGFIYEFEMWIRDI", "note": "[D2E]", "values": [
      {"measurement": "selection coefficient against synonymous wild-type codons (log2)", "setting": "methotrexate 8.8 µM", "value": "0.315 ± 0.011"},
      {"measurement": "selection coefficient against synonymous wild-type codons (log2)", "setting": "methotrexate 44 µM", "value": "0.315 ± 0.046"}
    ]},
    {"variant": "MFWQKSLTLIVALTLSRGIGLKNDLPWKLKSDMMFFSRVTSGLLVTRSTGQMNVVLMGRKTWESLPAHSRPLKNRINVVISRQEVLDLGGGAYHARSLDDALALLSQIYDSTSKIQLNRVFVIGGGELCKAAMEHSRLNRIIATVIHNEVDCDVFFPIDFRSSQSCLPWRKQDHSVLEAWVGSKVPQGKINENGFIYEFEMWIRDI", "note": "[D2F]", "values": [
      {"measurement": "selection coefficient against synonymous wild-type codons (log2)", "setting": "methotrexate 8.8 µM", "value": "-0.379 ± 0.07"},
      {"measurement": "selection coefficient against synonymous wild-type codons (log2)", "setting": "methotrexate 44 µM", "value": "-0.149 ± 0.038"}
    ]},
    {"variant": "MGWQKSLTLIVALTLSRGIGLKNDLPWKLKSDMMFFSRVTSGLLVTRSTGQMNVVLMGRKTWESLPAHSRPLKNRINVVISRQEVLDLGGGAYHARSLDDALALLSQIYDSTSKIQLNRVFVIGGGELCKAAMEHSRLNRIIATVIHNEVDCDVFFPIDFRSSQSCLPWRKQDHSVLEAWVGSKVPQGKINENGFIYEFEMWIRDI", "note": "[D2G]", "values": [
      {"measurement": "selection coefficient against synonymous wild-type codons (log2)", "setting": "methotrexate 8.8 µM", "value": "0.00429 ± 0.067"},
      {"measurement": "selection coefficient against synonymous wild-type codons (log2)", "setting": "methotrexate 44 µM", "value": "0.00769 ± 0.11"}
    ]},
    {"variant": "MHWQKSLTLIVALTLSRGIGLKNDLPWKLKSDMMFFSRVTSGLLVTRSTGQMNVVLMGRKTWESLPAHSRPLKNRINVVISRQEVLDLGGGAYHARSLDDALALLSQIYDSTSKIQLNRVFVIGGGELCKAAMEHSRLNRIIATVIHNEVDCDVFFPIDFRSSQSCLPWRKQDHSVLEAWVGSKVPQGKINENGFIYEFEMWIRDI", "note": "[D2H]", "values": [
      {"measurement": "selection coefficient against synonymous wild-type codons (log2)", "setting": "methotrexate 8.8 µM", "value": "-0.0405 ± 0.11"},
      {"measurement": "selection coefficient against synonymous wild-type codons (log2)", "setting": "methotrexate 44 µM", "value": "-0.128 ± 0.088"}
    ]},
    {"variant": "MIWQKSLTLIVALTLSRGIGLKNDLPWKLKSDMMFFSRVTSGLLVTRSTGQMNVVLMGRKTWESLPAHSRPLKNRINVVISRQEVLDLGGGAYHARSLDDALALLSQIYDSTSKIQLNRVFVIGGGELCKAAMEHSRLNRIIATVIHNEVDCDVFFPIDFRSSQSCLPWRKQDHSVLEAWVGSKVPQGKINENGFIYEFEMWIRDI", "note": "[D2I]", "values": [
      {"measurement": "selection coefficient against synonymous wild-type codons (log2)", "setting": "methotrexate 8.8 µM", "value": "0.0857 ± 0.021"},
      {"measurement": "selection coefficient against synonymous wild-type codons (log2)", "setting": "methotrexate 44 µM", "value": "-0.074 ± 0.05"}
    ]},
    {"variant": "MLWQKSLTLIVALTLSRGIGLKNDLPWKLKSDMMFFSRVTSGLLVTRSTGQMNVVLMGRKTWESLPAHSRPLKNRINVVISRQEVLDLGGGAYHARSLDDALALLSQIYDSTSKIQLNRVFVIGGGELCKAAMEHSRLNRIIATVIHNEVDCDVFFPIDFRSSQSCLPWRKQDHSVLEAWVGSKVPQGKINENGFIYEFEMWIRDI", "note": "[D2L]", "values": [
      {"measurement": "selection coefficient against synonymous wild-type codons (log2)", "setting": "methotrexate 8.8 µM", "value": "-0.133 ± 0.18"},
      {"measurement": "selection coefficient against synonymous wild-type codons (log2)", "setting": "methotrexate 44 µM", "value": "-0.195 ± 0.17"}
    ]},
    {"variant": "MMWQKSLTLIVALTLSRGIGLKNDLPWKLKSDMMFFSRVTSGLLVTRSTGQMNVVLMGRKTWESLPAHSRPLKNRINVVISRQEVLDLGGGAYHARSLDDALALLSQIYDSTSKIQLNRVFVIGGGELCKAAMEHSRLNRIIATVIHNEVDCDVFFPIDFRSSQSCLPWRKQDHSVLEAWVGSKVPQGKINENGFIYEFEMWIRDI", "note": "[D2M]", "values": [
      {"measurement": "selection coefficient against synonymous wild-type codons (log2)", "setting": "methotrexate 8.8 µM", "value": "0.0835 ± 0.095"},
      {"measurement": "selection coefficient against synonymous wild-type codons (log2)", "setting": "methotrexate 44 µM", "value": "0.243 ± 0.12"}
    ]},
    {"variant": "MNWQKSLTLIVALTLSRGIGLKNDLPWKLKSDMMFFSRVTSGLLVTRSTGQMNVVLMGRKTWESLPAHSRPLKNRINVVISRQEVLDLGGGAYHARSLDDALALLSQIYDSTSKIQLNRVFVIGGGELCKAAMEHSRLNRIIATVIHNEVDCDVFFPIDFRSSQSCLPWRKQDHSVLEAWVGSKVPQGKINENGFIYEFEMWIRDI", "note": "[D2N]", "values": [
      {"measurement": "selection coefficient against synonymous wild-type codons (log2)", "setting": "methotrexate 8.8 µM", "value": "0.139 ± 0.026"},
      {"measurement": "selection coefficient against synonymous wild-type codons (log2)", "setting": "methotrexate 44 µM", "value": "-0.0635 ± 0.081"}
    ]},
    {"variant": "MPWQKSLTLIVALTLSRGIGLKNDLPWKLKSDMMFFSRVTSGLLVTRSTGQMNVVLMGRKTWESLPAHSRPLKNRINVVISRQEVLDLGGGAYHARSLDDALALLSQIYDSTSKIQLNRVFVIGGGELCKAAMEHSRLNRIIATVIHNEVDCDVFFPIDFRSSQSCLPWRKQDHSVLEAWVGSKVPQGKINENGFIYEFEMWIRDI", "note": "[D2P]", "values": [
      {"measurement": "selection coefficient against synonymous wild-type codons (log2)", "setting": "methotrexate 8.8 µM", "value": "0.0328 ± 0.065"},
      {"measurement": "selection coefficient against synonymous wild-type codons (log2)", "setting": "methotrexate 44 µM", "value": "0.0258 ± 0.16"}
    ]},
    {"variant": "MQWQKSLTLIVALTLSRGIGLKNDLPWKLKSDMMFFSRVTSGLLVTRSTGQMNVVLMGRKTWESLPAHSRPLKNRINVVISRQEVLDLGGGAYHARSLDDALALLSQIYDSTSKIQLNRVFVIGGGELCKAAMEHSRLNRIIATVIHNEVDCDVFFPIDFRSSQSCLPWRKQDHSVLEAWVGSKVPQGKINENGFIYEFEMWIRDI", "note": "[D2Q]", "values": [
      {"measurement": "selection coefficient against synonymous wild-type codons (log2)", "setting": "methotrexate 8.8 µM", "value": "0.117 ± 0.085"},
      {"measurement": "selection coefficient against synonymous wild-type codons (log2)", "setting": "methotrexate 44 µM", "value": "0.0235 ± 0.086"}
    ]},
    {"variant": "MSWQKSLTLIVALTLSRGIGLKNDLPWKLKSDMMFFSRVTSGLLVTRSTGQMNVVLMGRKTWESLPAHSRPLKNRINVVISRQEVLDLGGGAYHARSLDDALALLSQIYDSTSKIQLNRVFVIGGGELCKAAMEHSRLNRIIATVIHNEVDCDVFFPIDFRSSQSCLPWRKQDHSVLEAWVGSKVPQGKINENGFIYEFEMWIRDI", "note": "[D2S]", "values": [
      {"measurement": "selection coefficient against synonymous wild-type codons (log2)", "setting": "methotrexate 8.8 µM", "value": "0.082 ± 0.061"},
      {"measurement": "selection coefficient against synonymous wild-type codons (log2)", "setting": "methotrexate 44 µM", "value": "0.0699 ± 0.14"}
    ]},
    {"variant": "MTWQKSLTLIVALTLSRGIGLKNDLPWKLKSDMMFFSRVTSGLLVTRSTGQMNVVLMGRKTWESLPAHSRPLKNRINVVISRQEVLDLGGGAYHARSLDDALALLSQIYDSTSKIQLNRVFVIGGGELCKAAMEHSRLNRIIATVIHNEVDCDVFFPIDFRSSQSCLPWRKQDHSVLEAWVGSKVPQGKINENGFIYEFEMWIRDI", "note": "[D2T]", "values": [
      {"measurement": "selection coefficient against synonymous wild-type codons (log2)", "setting": "methotrexate 8.8 µM", "value": "0.121 ± 0.063"},
      {"measurement": "selection coefficient against synonymous wild-type codons (log2)", "setting": "methotrexate 44 µM", "value": "0.179 ± 0.14"}
    ]},
    {"variant": "MVWQKSLTLIVALTLSRGIGLKNDLPWKLKSDMMFFSRVTSGLLVTRSTGQMNVVLMGRKTWESLPAHSRPLKNRINVVISRQEVLDLGGGAYHARSLDDALALLSQIYDSTSKIQLNRVFVIGGGELCKAAMEHSRLNRIIATVIHNEVDCDVFFPIDFRSSQSCLPWRKQDHSVLEAWVGSKVPQGKINENGFIYEFEMWIRDI", "note": "[D2V]", "values": [
      {"measurement": "selection coefficient against synonymous wild-type codons (log2)", "setting": "methotrexate 8.8 µM", "value": "0.0451 ± 0.09"},
      {"measurement": "selection coefficient against synonymous wild-type codons (log2)", "setting": "methotrexate 44 µM", "value": "0.0923 ± 0.13"}
    ]}
  ]
}
